These results are taken from PubChem BioAssay (NCI).

In the assay the test system is NCI-H322M lung. Kind of assay: inhibition of tumour cell growth, NCI panel, 48 h.

Where “and” joins values, the source holds several entries; their conditions need not be identical. Identical values can stand only once.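 Five concentrations, 48 hours, 96-well plates. GI50 is the concentration that inhibits growth by half. At the TGI there is no net growth.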

Consider `O=C(NNc1nc2cc(F)c(F)cc2n2cccc12)c1cccnn1`, for which the GI50 is 0.237 µM and 0.213 µM; the TGI was 30 µM and 37.1 µM.

Consider `C#C[C@]1(O)CC[C@H]2[C@@H]3CC=C4c5sc(-c6cccc(O)c6)nc5CC[C@]4(C)[C@H]3CC[C@@]21C`, for which the GI50 is 1.69 µM and the TGI amounted to 14.4 µM.

For `CS(=O)c1nccc(-c2c(-c3ccc(F)c(OCCc4ccc(F)cc4)c3)nc3sccn23)n1` (stereo unspecified), the GI50 is 15 µM and the TGI came to 29.2 µM.
